For test [1], the target named is Venus-Flag (VF)-tagged p38β expressed in HEK293T cells (UniProt Q15759). As to the kind of experiment: co-IP; Flag-immunoprecipitation (anti-Flag M2 magnetic beads) from lysates of HEK293T cells cotransfected with GST-MK2 and VF-p38 isoforms; 1% NP-40 buffer, 4 °C; Western blot. A general note: Immunoblotting shows a protein as a band on a membrane.
In test [2] the target is T1, Venus-Flag (VF)-tagged p38δ expressed in HEK293T cells (UniProt O15264).
T1 sequence: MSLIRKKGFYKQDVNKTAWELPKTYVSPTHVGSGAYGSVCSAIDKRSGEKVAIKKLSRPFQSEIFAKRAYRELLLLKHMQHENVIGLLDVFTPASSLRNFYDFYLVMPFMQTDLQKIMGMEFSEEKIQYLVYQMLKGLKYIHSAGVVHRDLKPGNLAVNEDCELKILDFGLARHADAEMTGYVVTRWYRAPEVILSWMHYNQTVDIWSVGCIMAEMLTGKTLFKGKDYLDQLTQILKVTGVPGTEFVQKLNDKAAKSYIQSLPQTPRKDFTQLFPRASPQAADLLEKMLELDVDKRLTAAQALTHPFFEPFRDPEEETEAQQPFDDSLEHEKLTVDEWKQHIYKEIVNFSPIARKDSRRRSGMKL
Described as above.

Amino acid sequences for entries named in this document (tags omitted).
UniProt Q15759: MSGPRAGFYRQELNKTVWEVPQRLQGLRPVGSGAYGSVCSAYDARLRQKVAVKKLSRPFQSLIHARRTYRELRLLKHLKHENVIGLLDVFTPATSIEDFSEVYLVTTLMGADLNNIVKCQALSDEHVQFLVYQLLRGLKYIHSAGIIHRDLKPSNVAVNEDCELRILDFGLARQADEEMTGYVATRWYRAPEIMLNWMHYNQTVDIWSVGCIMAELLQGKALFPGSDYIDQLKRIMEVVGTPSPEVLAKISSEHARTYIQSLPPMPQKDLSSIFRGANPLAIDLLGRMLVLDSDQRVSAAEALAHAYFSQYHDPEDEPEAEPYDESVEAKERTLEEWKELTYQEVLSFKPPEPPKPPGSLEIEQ
UniProt P49137: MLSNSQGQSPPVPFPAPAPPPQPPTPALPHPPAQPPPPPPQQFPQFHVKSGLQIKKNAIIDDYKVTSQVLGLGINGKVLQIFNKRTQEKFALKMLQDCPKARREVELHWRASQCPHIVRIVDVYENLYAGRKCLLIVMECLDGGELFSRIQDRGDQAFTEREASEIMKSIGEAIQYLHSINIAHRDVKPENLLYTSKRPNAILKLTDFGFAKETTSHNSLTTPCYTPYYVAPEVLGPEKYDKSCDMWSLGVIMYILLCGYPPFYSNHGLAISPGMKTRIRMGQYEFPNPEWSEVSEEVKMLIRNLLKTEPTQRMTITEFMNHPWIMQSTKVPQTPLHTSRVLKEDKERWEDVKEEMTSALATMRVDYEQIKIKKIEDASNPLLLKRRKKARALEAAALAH

Test [3] has as its target T2, Venus-Flag (VF)-tagged p38γ expressed in HEK293T cells (UniProt P53778).
T2 sequence: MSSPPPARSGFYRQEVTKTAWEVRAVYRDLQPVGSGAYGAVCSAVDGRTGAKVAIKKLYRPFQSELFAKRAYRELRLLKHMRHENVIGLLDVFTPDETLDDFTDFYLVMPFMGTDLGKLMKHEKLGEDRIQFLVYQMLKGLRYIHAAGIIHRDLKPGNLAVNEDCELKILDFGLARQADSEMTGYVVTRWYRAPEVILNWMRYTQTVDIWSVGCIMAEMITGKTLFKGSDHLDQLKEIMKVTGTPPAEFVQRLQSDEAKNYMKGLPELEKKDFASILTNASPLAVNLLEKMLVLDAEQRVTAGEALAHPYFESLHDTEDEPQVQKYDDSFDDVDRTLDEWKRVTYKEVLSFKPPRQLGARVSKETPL
Described as above.

In test [4] the target is Venus-Flag (VF)-tagged p38β expressed in HEK293T cells (UniProt Q15759). As to the kind of experiment: FRET or BRET; TR-FRET in lysates of HEK293T cells cotransfected with VF-p38 isoforms and GST-MK2; anti-Flag-Tb and anti-GST-d2 antibodies; 20 mM Tris-HCl pH 7.0, 50 mM NaCl, 0.01% NP-40; room temperature; 384- and 1536-well formats.
For test [5], the target named is T1, Venus-Flag (VF)-tagged p38δ expressed in HEK293T cells. The description is as above.
In test [6] the target is T2, Venus-Flag (VF)-tagged p38γ expressed in HEK293T cells. The description is as above.

These are yes or no findings as the source states them, for the method shown. In cells and extracts the contact can be indirect. Some results given as binding are weak or reduced against the parent protein; the word gives no strength. For part of these data: Tags and fused reporters may be left off the sequences shown.

On to “GST-MK2 expressed in HEK293T cells (from UniProt P49137 1-400) (enzyme)”, for which the binding entry in test [1] is reported as “binds”; in test [2] it was “no binding”; in test [3] it was “no binding”; in test [4] it was “binds”; in test [5], “no binding”; in test [6], “no binding”.

Values taken from publication PMC12751014, “Non-Catalytic Inhibitors of the p38/MK2 Interface: Repurposing Approved Drugs to Target Neuroinflammation in Alzheimer’s Disease” (Journal of Medicinal Chemistry, 2025).
